# Experimental data published in PubChem BioAssay AID743279 (National Center for Advancing Translational Sciences (NCATS), 2014).
# Hit rate of the full screen: of about 360,000 compounds, about 17,000 (4.7%) were called active. Inconclusive results, whose numbers are uncertain, are shown with a selection of clear calls. Cut-off read from the data, not from the text of the source: active = activity change below about -50%; inconclusive = mostly about -30% to -49%; inactive = weaker than that.
# Experiment: qHTS for Inhibitors of Inflammasome Signaling: IL-1-beta AlphaLISA Primary Screen
# Settings: THP-1 LPS/ATP IL-1B secretion, 16 h; at 57.5 µM, stronger effect = lower value
# Procedure, shortened: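 Secreted IL-1B measured by AlphaLISA bead assay after 16 h compound exposure of THP-1 cells; compounds (final up to 57.5 uM) added 1 h before LPS (250 ng/mL) and ATP (1.25 mM) stimulation; lower signal means less secretion.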
# % is set by controls: 0 for no effect and ±100 for the full control effect.
row,Compound,activity change
1,Cc1ccc(CNC(=O)N2CCN(S(=O)(=O)c3ccccc3)CC2)cc1,inactive: -7.94%
2,CCc1sc(C(=O)NCCCn2ccnc2)cc1Br,inactive: 14.7%
3,N#C/C(=C\c1cccnc1)C(=O)Nc1ccc(Cl)cc1,inactive: 25.3%
4,O=Nc1c(-c2c(O)[nH]c3cc(Br)ccc23)[nH]c2ccccc12,active: -106%
5,CCOc1ccc(CN2CCN(CCCc3ccccc3)C(CCO)C2)cc1 (centres undefined),inconclusive: -34.7%
6,Cc1onc(-c2ccccc2)c1C(=O)N/N=C/C(Br)=C/c1ccccc1,inconclusive: -41.2%
7,Nc1nnc(-c2cn(-c3ccccc3)nc2-c2ccccc2)o1,inconclusive: -32%
8,CC(=O)Nc1ccc(S(=O)(=O)N(C)CC(=O)OCC(=O)N2CCc3ccccc32)cc1,inactive: 7.46%
9,N[C@@H](Cc1ccccc1)c1nnc2sc(SCc3ccccc3)nn12,inconclusive: -30.4%
10,COc1cccc(C2=NN(C(=O)c3ccco3)C(c3ccco3)C2)c1 (centres undefined),inconclusive: -33.2%
11,Cc1ccc(C(=O)NS(=O)(=O)c2ccccc2)cc1,inactive: 0.207%
12,CC(C(=O)Nc1ccc(N(C)C)cc1)N1C(=O)c2ccccc2S1(=O)=O (centres undefined),inactive: -8.97%
13,O=C(NCc1ccc(C(F)(F)F)cc1)c1ccc(-c2ccc(F)c(F)c2)c2ccoc12,inconclusive: -35.4%
14,Cn1cc(CN2CCN(c3ccc(Cl)cn3)CC2)c(-c2ccccc2F)n1,inconclusive: -33.3%
15,O=c1c2ccccc2nnn1CSc1nnc(-c2cccs2)n1Cc1ccccc1,inconclusive: -34.2%
16,COCCCNCCCOc1ccc(Cl)cc1Br,inactive: -25%
17,CCOC(=O)c1c(S(=O)(=O)NCC(=O)Nc2ccc(C)cc2)c(C)n(C)c1C,inactive: -6.41%
18,Cc1ccccc1CN1C(=O)CN(S(C)(=O)=O)CC1(C)C(=O)NC(C)C (centres undefined),inconclusive: -41.2%
19,COc1ccc(NC(=O)c2cccc3c(-c4cnn(C)c4)coc23)cc1,inconclusive: -30.3%
20,Cc1nc(N2CCN(Cc3ccc4c(c3)OCO4)CC2)c2oc3ccccc3c2n1,inconclusive: -34.4%

row,Compound,activity change
1,N/C(=N\OC(=O)N1CCOCC1)c1ccccc1,inconclusive: -45.8%
2,COc1ccc(C(=S)N2CCN(C)CC2)cc1,inactive: 11.7%
3,O=C(CC(SCCO)c1ccc([N+](=O)[O-])cc1)c1ccco1 (centres undefined),inconclusive: -42.5%
4,Cc1ccc(CNC(=S)NC2CCCCC2)cc1,inactive: 2%
5,Cc1cc(NCCC(C)C)n2nc(C)c(-c3ccccc3)c2n1,inconclusive: -33.3%
6,CC(C)(C)OC(=O)[C@H](Cc1ccccc1)NC(=O)c1[nH]cnc1C(=O)Nc1ccccc1F,inconclusive: -34.2%
7,COc1ccc(C(=O)O/N=C(\N)Cc2ccc(Cl)cc2)cc1OC,active: -54.1%
8,O=C(Nc1ccc(Br)c(Br)c1)C1CCCO1 (centres undefined),inconclusive: -34.9%
9,CCOc1ccc(/C=N/NC(=O)c2cc3ccccc3cc2OC)cc1,inactive: -10.9%
10,COCCNC(=O)c1c(N)n(CCCn2ccnc2)c2nc3ccccc3nc12,inconclusive: -36.6%
11,C=CCCCCCCCCc1nc(SCC(=O)O)n[nH]1,inactive: 15.1%
12,CC(O)CNc1nc2ccccc2n1-c1ncnc2sc3c(c12)CCC3 (centres undefined),inconclusive: -41.8%
13,O=C1CC(/C=C/c2ccccn2)=Nc2ccccc2N1,active: -75%
14,Oc1ccccc1N1CCN(c2ncnc3scc(-c4ccccc4)c23)CC1,inconclusive: -46.6%
15,COc1cccc(N(C(=O)c2ccn[nH]2)C2(C(=O)Nc3c(C)cccc3C)CCCCC2)c1,inconclusive: -34.4%
16,CCCn1cnc2c(SCc3ccccc3Cl)nc(N)nc21,inconclusive: -31.8%
17,Cc1cc(C)c(C)c(OCCOCCNCc2ccccc2)c1,inconclusive: -34.9%
18,Cc1cc(C(=O)CN(Cc2ccc(F)cc2)S(=O)(=O)c2ccc3c(c2)OCCO3)c(C)n1C,inconclusive: -37.1%
19,Cc1ccc(Cl)cc1NC(=O)COC(=O)CC(C)(C)C,inconclusive: -40.6%
20,Oc1ccc(Nc2nc(N3CCCC3)c3ccccc3n2)cc1,active: -98.8%

row,Compound,activity change
1,O=C1CCCC2=C1C(c1ccc(O)c(O)c1)Nc1ccc3ccccc3c12 (centres undefined),inactive: -12.5%
2,COc1ccc(C(c2nnnn2CCc2ccccc2)N2CCN(C3CCCC3)CC2)cc1 (centres undefined),inconclusive: -46.4%
3,Cc1csc(N2C(=O)C3C4CCC(O4)C3C2=O)n1 (centres undefined),inactive: 1.78%
4,COc1ccc(CCNCC(O)Cn2ccc3ccccc32)cc1OC (centres undefined),inconclusive: -46.5%
5,COc1ccc2cc(N3CCCC3=O)ccc2c1,inactive: -15%
6,Cn1c(O)c(N=NC(=O)CNC(=O)c2ccccc2)c2ccccc21,inactive: -9.32%
7,O=C1C2C(C(=O)N1/N=C/c1cc(Br)cc([N+](=O)[O-])c1O)C1C=CC2C12CC2 (centres undefined),inconclusive: -34.2%
8,CC(Cc1cccs1)NC(=O)NC1CCCCC1 (centres undefined),inconclusive: -43.2%
9,Clc1ccccc1CNCc1ccc2c(c1)OCO2,inconclusive: -34%
10,COC(=O)c1c(NC(=O)c2ccc(S(=O)(=O)N3CCOCC3)cc2)sc2c1CCN(C(C)C)C2,inconclusive: -46.2%
11,COc1ccc(NC(=O)c2cc(F)cc(F)c2)cc1S(=O)(=O)N1CCCCC1,inactive: 9.13%
12,CCC1CCCCN1CCCNC(=O)c1cc2c(Cl)nc3ccccc3c2s1 (centres undefined),inconclusive: -45.2%
13,Cc1ccc(NC(=S)NC(C)(C)C)c([N+](=O)[O-])c1,inconclusive: -32.7%
14,O=C(OCC(=O)C12CC3CC(CC(C3)C1)C2)c1ccc(O)cc1O,inconclusive: -31.8%
15,CCc1cc(CNC(=O)C2CCC(=O)N(Cc3ccc(Cl)cc3)C2)on1 (centres undefined),inconclusive: -40.9%
16,CC(C)CC(C(=O)NC1CCCCC1)N(Cc1ccccc1)C(=O)c1snc(C(N)=O)c1N (centres undefined),inactive: -11.6%
17,O=C1NN=C2CCCCCC12 (centres undefined),inconclusive: -38%
18,N#Cc1c(N)oc(-c2ccco2)c1-c1ccco1,inconclusive: -38.3%
19,CN(C(=O)CSc1nnc(-c2ccccc2)c(-c2ccccc2)n1)C1CCS(=O)(=O)C1 (centres undefined),inactive: 5.37%
